# The inconclusive results got no clear call from the source; some entries with a clear call stand among them for comparison. For part of these data: Potencies beside an inconclusive call are fits to weak or partial responses and may not hold up. Calls of active or inactive are those of the source. Calls come from the whole dose curve; as a rule, active = well fitted curve in the direction sought with a large enough effect; inconclusive = small, poorly fitted or top-dose-only effect, or another doubt; inactive = no such curve, though single readings can be large; an effect the other way counts as inactive or inconclusive.
# Experiments:
# [1] = target: DNA polymerase eta (Homo sapiens) (UniProt Q9Y253); assay: qHTS for Inhibitors of Polymerase Eta: Confirmatory Assay for Cherry-picked Compounds (AID 720502); conditions: Pol eta primer extension, TAMRA/BHQ fluorescence, 10 min; note: potency is the fitted concentration of half-maximal effect
# Outline: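 10 nM Pol eta + cpd, 15 min RT; start w/ 50 nM final primer/TAMRA-reporter/BHQ-2-template substrate; kinetic read 0 and 10 min, ex 525/em 598 nm. Buffer-only wells = negative control.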
# [2] = target: Rap guanine nucleotide exchange factor 3 (Homo sapiens) (UniProt O95398); assay: Confirmatory qHTS for antagonist of cAMP-regulated guanine nucleotide exchange factor 3 (EPAC1) (AID 1645880); conditions: EPAC1 Rap1B-BODIPY-GDP exchange, fluorescence; activity, negative = inhibition: at 115 µM (top of the series); note: nearly all actives have a fitted effect of over 55% in size; note: potency is the fitted concentration of half-maximal effect;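 for activity, negative = inhibition: plate controls were DMSO only for no effect and full effect of the ATA control for full effect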
# Outline: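 Nucleotide exchange uses 100 nM EPAC1, 250 nM RAP1B-BODIPY-GDP and 50 uM GDP, with compounds in a concentration-titration series. After 5 min at room temperature, fluorescence (480 nm ex/540 nm em) is read every 5 min for 30 min. Data are normalized to control ATA and DMSO.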
# [3] = target: Rap guanine nucleotide exchange factor 3 (Homo sapiens) (UniProt O95398); assay: Confirmatory qHTS for agonist of cAMP-regulated guanine nucleotide exchange factor 3 (EPAC1) (AID 1645881); conditions: EPAC1 Rap1B BODIPY-GDP exchange fluorescence; activation: at 154 µM (top of the series), 100% = cAMP control response; note: nearly all actives have a fitted effect of over 75% in size; note: potency is the fitted concentration of half-maximal effect;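 for activation: EPAC1 catalysed release of BODIPY-GDP from Rap1B seen as fluorescence loss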
# [4] = target: Rap guanine nucleotide exchange factor 4 (Homo sapiens) (UniProt Q8WZA2); assay: Confirmatory qHTS for antagonist of cAMP-regulated guanine nucleotide exchange factor 4 (EPAC2) (AID 1645885); conditions: activity change, negative = inhibition: at 12.7 µM (top of the series) unless noted; note: nearly all actives have a fitted effect of over 25% in size; note: potency is the fitted concentration of half-maximal effect; for activity change, negative = inhibition: % is set by controls: 0 for no effect and ±100 for the full control effect
# [5] = target: Rap guanine nucleotide exchange factor 3 (Homo sapiens) (UniProt O95398); assay: Counterscreen qHTS for agonist of cAMP-regulated guanine nucleotide exchange factor 3 (EPAC1) (AID 1645889); conditions: EPAC1 Rap1B-BODIPY-GDP exchange, fluorescence; activation: at 154 µM (top of the series) unless noted; note: nearly all actives have a fitted effect of over 40% in size; note: potency is the fitted concentration of half-maximal effect; for activation: % of control where 0% means no effect
# Outline: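 Measured: fluorescence of BODIPY-GDP bound to Rap1B, which falls as exchange proceeds. Conditions include 50 uM competing GDP, 5 and 30 min reads, and a later cAMP challenge for antagonist detection.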
# [6] = target: DNA polymerase kappa (Homo sapiens) (UniProt Q9UBT6); assay: qHTS for Inhibitors of Polymerase Kappa: Confirmatory Assay for Cherry-picked Compounds (AID 720501); conditions: purified Pol-kappa, fluorescent strand-displacement substrate; note: potency is the fitted concentration of half-maximal effect
# Outline: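 Human Pol-kappa, dispensed at 10 nM, was preincubated with compounds for 15 min at room temperature. Reactions were started with primer/template substrate (50 nM final) carrying a TAMRA reporter strand and BHQ-2-quenched template, and fluorescence (ex 525/em 598 nm) was read at 0 and 10 min.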
# [7] = target: Tumor susceptibility gene 101 protein (Homo sapiens) (UniProt Q99816); assay: qHTS Assay for Iinhibitors of HIV-1 Budding by Blocking the Interaction of PTAP/TSG101: Hit Validation (AID 651600); note: % is set by controls: 0 for no effect and ±100 for the full control effect; nearly all actives have a fitted effect of over 70% in size
# Outline: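 Tsg101 binding domain 10 uM + FITC-PTAP peptide 50 nM (final), 10 mM HEPES pH 7.5/0.15 M NaCl/0.01% Tween 20/3 mM EDTA/0.1 mM TCEP; 20 min RT; FP read, FITC filters.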
# Tags give direction and shape of the fitted curve.
# Sequence of UniProt Q8WZA2 (Q8WZA2 whole entry, looked up): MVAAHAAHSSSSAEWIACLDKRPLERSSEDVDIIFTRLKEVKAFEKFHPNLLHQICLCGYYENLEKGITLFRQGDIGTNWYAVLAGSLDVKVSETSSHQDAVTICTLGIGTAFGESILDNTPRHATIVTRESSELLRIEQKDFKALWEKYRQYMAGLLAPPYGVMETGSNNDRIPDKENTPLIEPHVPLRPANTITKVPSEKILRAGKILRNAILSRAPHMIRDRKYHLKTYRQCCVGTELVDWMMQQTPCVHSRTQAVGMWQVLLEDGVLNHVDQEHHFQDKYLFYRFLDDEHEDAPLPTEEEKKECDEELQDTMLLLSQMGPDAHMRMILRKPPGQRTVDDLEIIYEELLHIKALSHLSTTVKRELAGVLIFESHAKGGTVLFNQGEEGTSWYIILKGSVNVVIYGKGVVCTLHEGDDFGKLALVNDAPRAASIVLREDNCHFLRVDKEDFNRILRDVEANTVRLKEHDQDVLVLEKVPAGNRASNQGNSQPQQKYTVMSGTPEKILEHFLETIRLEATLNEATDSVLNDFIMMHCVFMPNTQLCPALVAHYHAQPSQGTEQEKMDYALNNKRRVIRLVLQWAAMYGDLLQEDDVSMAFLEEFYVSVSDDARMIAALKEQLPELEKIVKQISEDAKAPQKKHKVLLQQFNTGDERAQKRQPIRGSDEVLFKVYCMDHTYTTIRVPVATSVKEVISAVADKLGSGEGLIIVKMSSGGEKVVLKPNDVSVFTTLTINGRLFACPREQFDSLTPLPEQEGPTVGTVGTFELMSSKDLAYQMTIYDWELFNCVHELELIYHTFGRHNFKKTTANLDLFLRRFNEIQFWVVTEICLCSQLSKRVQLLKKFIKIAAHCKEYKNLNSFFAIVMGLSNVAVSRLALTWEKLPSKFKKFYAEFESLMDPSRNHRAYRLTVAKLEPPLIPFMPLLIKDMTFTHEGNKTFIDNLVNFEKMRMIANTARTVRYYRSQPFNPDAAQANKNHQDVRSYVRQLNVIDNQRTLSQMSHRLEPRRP
# Sequence of UniProt O95398 (O95398 whole entry, looked up): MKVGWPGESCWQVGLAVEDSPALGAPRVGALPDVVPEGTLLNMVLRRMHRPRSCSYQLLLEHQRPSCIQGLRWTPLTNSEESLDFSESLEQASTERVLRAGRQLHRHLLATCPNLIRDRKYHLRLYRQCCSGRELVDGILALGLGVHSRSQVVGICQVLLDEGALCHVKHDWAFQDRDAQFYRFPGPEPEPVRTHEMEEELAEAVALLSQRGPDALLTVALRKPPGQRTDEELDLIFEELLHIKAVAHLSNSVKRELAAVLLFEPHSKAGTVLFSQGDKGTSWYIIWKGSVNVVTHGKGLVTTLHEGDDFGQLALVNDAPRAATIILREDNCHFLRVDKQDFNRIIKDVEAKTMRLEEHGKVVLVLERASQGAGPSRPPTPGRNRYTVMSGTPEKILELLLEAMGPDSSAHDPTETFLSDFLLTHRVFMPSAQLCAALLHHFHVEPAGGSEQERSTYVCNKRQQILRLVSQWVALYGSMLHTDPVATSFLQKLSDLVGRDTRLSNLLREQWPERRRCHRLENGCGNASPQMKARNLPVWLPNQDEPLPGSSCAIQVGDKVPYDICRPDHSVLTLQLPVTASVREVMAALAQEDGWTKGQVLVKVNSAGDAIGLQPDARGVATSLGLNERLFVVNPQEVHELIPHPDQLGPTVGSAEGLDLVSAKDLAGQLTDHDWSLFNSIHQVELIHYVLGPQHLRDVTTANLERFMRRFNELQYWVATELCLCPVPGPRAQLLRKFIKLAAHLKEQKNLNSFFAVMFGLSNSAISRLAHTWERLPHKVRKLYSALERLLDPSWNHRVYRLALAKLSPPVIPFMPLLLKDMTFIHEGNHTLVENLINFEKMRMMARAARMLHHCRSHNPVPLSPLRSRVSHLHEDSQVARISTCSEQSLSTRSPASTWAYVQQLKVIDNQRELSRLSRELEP
# Sequence of UniProt Q9UBT6 (Q9UBT6 whole entry, looked up): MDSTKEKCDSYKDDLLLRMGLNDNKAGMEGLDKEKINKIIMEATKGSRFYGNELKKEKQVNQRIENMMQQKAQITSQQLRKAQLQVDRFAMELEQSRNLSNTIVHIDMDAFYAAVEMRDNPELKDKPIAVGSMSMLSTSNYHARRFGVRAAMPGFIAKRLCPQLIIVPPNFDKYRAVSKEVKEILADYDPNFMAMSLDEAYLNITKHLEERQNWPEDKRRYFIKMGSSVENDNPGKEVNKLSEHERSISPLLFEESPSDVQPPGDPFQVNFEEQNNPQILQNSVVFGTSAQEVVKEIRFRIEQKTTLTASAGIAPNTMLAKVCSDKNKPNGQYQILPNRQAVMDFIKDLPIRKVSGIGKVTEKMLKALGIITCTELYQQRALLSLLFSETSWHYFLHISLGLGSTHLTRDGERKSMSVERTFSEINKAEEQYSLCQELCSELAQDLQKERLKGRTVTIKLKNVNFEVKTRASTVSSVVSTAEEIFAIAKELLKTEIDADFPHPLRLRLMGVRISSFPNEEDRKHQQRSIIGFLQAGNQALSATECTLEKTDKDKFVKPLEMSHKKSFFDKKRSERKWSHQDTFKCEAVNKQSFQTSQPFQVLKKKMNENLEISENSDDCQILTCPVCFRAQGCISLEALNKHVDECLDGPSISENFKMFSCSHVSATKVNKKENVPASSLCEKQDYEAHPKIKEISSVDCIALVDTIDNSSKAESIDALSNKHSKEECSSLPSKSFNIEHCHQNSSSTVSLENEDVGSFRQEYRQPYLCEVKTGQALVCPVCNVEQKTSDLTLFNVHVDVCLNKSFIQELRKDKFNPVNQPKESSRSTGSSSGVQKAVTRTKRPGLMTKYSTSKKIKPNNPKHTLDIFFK
# Sequence of UniProt Q9Y253 (Q9Y253 whole entry, looked up): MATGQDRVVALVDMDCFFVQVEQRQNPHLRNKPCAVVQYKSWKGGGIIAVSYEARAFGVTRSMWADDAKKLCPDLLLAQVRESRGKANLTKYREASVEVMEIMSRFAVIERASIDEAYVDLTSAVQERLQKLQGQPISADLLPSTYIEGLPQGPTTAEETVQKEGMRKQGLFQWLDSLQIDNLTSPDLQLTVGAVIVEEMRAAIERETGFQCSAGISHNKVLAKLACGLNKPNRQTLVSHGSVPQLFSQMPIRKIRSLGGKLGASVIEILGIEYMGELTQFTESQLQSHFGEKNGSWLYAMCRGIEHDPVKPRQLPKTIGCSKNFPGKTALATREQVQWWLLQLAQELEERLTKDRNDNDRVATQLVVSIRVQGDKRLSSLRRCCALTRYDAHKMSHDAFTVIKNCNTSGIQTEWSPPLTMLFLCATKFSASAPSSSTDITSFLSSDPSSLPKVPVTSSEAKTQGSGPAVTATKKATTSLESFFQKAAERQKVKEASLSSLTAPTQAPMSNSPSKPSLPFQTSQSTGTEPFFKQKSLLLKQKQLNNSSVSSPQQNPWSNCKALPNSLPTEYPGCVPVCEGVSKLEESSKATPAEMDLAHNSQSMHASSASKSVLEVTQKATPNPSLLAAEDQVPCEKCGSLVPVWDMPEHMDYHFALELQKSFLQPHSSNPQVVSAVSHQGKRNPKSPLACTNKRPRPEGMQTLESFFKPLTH
# Sequence of UniProt Q99816 (Q99816 whole entry, looked up, the tested form may be a part): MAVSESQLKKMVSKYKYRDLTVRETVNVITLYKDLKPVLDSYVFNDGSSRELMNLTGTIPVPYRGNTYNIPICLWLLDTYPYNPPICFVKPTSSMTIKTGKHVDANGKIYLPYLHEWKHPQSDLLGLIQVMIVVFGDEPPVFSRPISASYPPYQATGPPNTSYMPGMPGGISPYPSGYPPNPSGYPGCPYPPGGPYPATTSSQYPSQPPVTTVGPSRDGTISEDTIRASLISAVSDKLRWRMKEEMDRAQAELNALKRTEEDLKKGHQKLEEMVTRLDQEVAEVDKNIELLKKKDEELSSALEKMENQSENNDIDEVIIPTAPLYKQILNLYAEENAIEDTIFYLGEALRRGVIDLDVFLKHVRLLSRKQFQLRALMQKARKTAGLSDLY
structure (smiles),measurement,setting,value
COc1cc(/C=C2\SC(=O)NC2=O)ccc1Oc1ccc([N+](=O)[O-])cc1[N+](=O)[O-],Potency,[1],"inconclusive: 95.3 µM [inhibitor, single point]"
same,Potency,[2],active: 42.6 µM
same,Potency,[3],inactive
same,Potency,[4],inactive
COc1ccc2cc(-c3nc(Cl)c4c5c(sc4n3)CCCC5)c(=O)oc2c1,Potency,[2],"inconclusive: 95.3 µM [inhibitor, single point]"
same,Potency,[3],"inconclusive: 141 µM [activator, single point]"
same,Potency,[4],inactive
same,Potency,[5],"inconclusive: 79.4 µM [activator, single point]"
C[C@H]1CN([C@@H](C)CO)C(=O)c2cccc(NS(=O)(=O)c3ccc(Cl)cc3)c2O[C@@H]1CN(C)CC1CCCCC1,Potency,[2],inactive
same,Potency,[3],inactive
same,Potency,[4],inactive
same,activation,[5],inconclusive: 42.2% [activator] [at 30.8 µM]
CC(C1CC1)N(C(=O)NC1CCS(=O)(=O)C1)c1ccccc1 (centres undefined),Potency,[2],inactive
same,Potency,[3],inactive
same,Potency,[4],"inconclusive: 75.7 µM [inhibitor, partial curve, poor fit]"
same,Potency,[5],inactive
CCOC(=O)c1ccc2ncc(C(=O)OCC)c(Nc3ccc(C)c(Br)c3)c2c1,Potency,[2],"inconclusive: 84.9 µM [inhibitor, partial curve]"
same,Potency,[3],inactive
same,outcome,[4],inactive [at 12.7 µM]
same,Potency,[5],"inconclusive: 0.708 µM [activator, full curve, poor fit]"
O=C(O)c1ccccc1C1=Nc2ccc(O)cc2Oc2cc(O)ccc21,Potency,[6],"inconclusive: 42.3 µM [inhibitor, partial curve]"
same,Potency,[2],inactive
same,Potency,[3],"inconclusive: 89.1 µM [activator, partial curve, poor fit]"
same,Potency,[4],inactive
same,Potency,[5],active: 15.8 µM
O=c1oc2cc(O)ccc2cc1-c1nnc(Nc2ccccc2F)s1,Potency,[2],inactive
same,Potency,[3],"inconclusive: 126 µM [activator, partial curve, poor fit]"
same,Potency,[4],active: 3.38 µM
same,Potency,[5],active: 3.55 µM
CCN1CCc2c(sc(NC(=O)CSc3ccccc3)c2-c2nc3ccccc3s2)C1,Potency,[7],inactive
same,Potency,[2],inactive
same,Potency,[3],"inconclusive: 79.4 µM [activator, single point]"
same,Potency,[4],active: 3.79 µM
same,Potency,[5],"inconclusive: 2 µM [activator, full curve, poor fit]"
CC1(c2ccccc2)CC(C)(C)N2C(=O)C(=O)c3cccc1c32 (centres undefined),Potency,[2],"inconclusive: 17.8 µM [inhibitor, partial curve]"
same,Potency,[3],inactive
same,Potency,[4],"inconclusive: 3.01 µM [inhibitor, partial curve, poor fit]"
same,activation,[5],inactive: 21.7% [at 30.8 µM]
CCOc1ccccc1CN(CCc1ccc2c(c1)OCO2)Cc1ccccn1,Potency,[2],"inconclusive: 11.2 µM [inhibitor, full curve, poor fit]"
same,Potency,[3],"inconclusive: 35.5 µM [activator, partial curve, poor fit]"
same,Potency,[4],"inconclusive: 0.169 µM [inhibitor, full curve, poor fit]"
same,Potency,[5],"inconclusive: 2.24 µM [activator, partial curve, poor fit]"
Cc1ccc(N2C(=O)c3ccccc3C2Nc2ccccc2F)nc1 (centres undefined),Potency,[2],"inconclusive: 44.7 µM [inhibitor, partial curve]"
same,Potency,[3],"inconclusive: 25.1 µM [activator, full curve, poor fit]"
same,activation,[5],inconclusive: 30.6% [activator] [at 30.8 µM]
S=C(NCCCN1CCOCC1)Nc1cccc(-c2nnc3n2CCCCC3)c1,Potency,[2],inactive
same,Potency,[3],inactive
same,Potency,[5],inactive
CC1(C(=O)NS(=O)(=O)c2ccc(Cl)s2)CCN1C(=O)C1(c2ccccc2)CCCC1 (centres undefined),Potency,[2],active: 37.9 µM
same,Potency,[3],inactive
same,Potency,[5],inactive
O=C(O)CCN1C(=O)/C(=C\c2cccc(OCC(=O)Nc3ccc(Cl)cc3)c2)SC1=S,Potency,[2],"inconclusive: 16.9 µM [inhibitor, partial curve]"
same,Potency,[3],"inconclusive: 112 µM [activator, partial curve, poor fit]"
same,activation,[5],inconclusive: 26.4% [activator]
COc1ccc(N=Cc2c(O)ccc3ccccc23)cc1,Potency,[2],inactive
same,Potency,[3],"inconclusive: 79.4 µM [activator, partial curve, poor fit]"
same,Potency,[5],"inconclusive: 0.0079 µM [activator, full curve, poor fit]"
O=C1c2cccc3c(N4CCCCC4)ccc(c23)C(=O)N1c1ccccc1O,Potency,[2],inactive
same,Potency,[3],"inconclusive: 112 µM [activator, partial curve, poor fit]"
same,Potency,[5],"inconclusive: 12.6 µM [activator, partial curve]"
CCN(CC)C(=O)c1ccc(/C=C/c2c[nH]c3ccccc23)[n+](C)c1,Potency,[2],inactive
same,Potency,[3],"inconclusive: 89.1 µM [activator, partial curve, poor fit]"
same,Potency,[5],active: 15.8 µM
COc1ccc(C(=O)NCc2ccc3c(c2)CCN3C(=O)c2ccc(C)cc2)cc1,Potency,[2],inactive
same,Potency,[3],inactive
same,activation,[5],inconclusive: 50.6% [activator]
O=C1OC(c2ccccc2)(c2ccc(O)cc2)c2ccccc21 (centres undefined),Potency,[2],"inconclusive: 44.7 µM [inhibitor, partial curve, poor fit]"
same,Potency,[3],"inconclusive: 35.5 µM [activator, partial curve, poor fit]"
same,Potency,[5],"inconclusive: 0.02 µM [activator, full curve, poor fit]"
